In all, about 110,000 compounds were measured (“z-score”: median about -0.1, highest 2% from about 2 on). The list shows a part of the results.

This assay has as its target Metabotropic glutamate receptor 8 (Rattus norvegicus) (UniProt P70579). Nature of the assay: rat mGluR8 modulators via GIRK flux, primary screen, cell-based, thallium flux, HTS (AID 488969). The settings on record: HEK293 rat mGluR8, GIRK (G protein-gated inwardly rectifying potassium channel) thallium flux, FluoZin2; at 10 µM; stronger effect = higher value; submaximal glutamate (EC20) added with thallium.
Chain of UniProt P70579 (P70579 whole entry, looked up): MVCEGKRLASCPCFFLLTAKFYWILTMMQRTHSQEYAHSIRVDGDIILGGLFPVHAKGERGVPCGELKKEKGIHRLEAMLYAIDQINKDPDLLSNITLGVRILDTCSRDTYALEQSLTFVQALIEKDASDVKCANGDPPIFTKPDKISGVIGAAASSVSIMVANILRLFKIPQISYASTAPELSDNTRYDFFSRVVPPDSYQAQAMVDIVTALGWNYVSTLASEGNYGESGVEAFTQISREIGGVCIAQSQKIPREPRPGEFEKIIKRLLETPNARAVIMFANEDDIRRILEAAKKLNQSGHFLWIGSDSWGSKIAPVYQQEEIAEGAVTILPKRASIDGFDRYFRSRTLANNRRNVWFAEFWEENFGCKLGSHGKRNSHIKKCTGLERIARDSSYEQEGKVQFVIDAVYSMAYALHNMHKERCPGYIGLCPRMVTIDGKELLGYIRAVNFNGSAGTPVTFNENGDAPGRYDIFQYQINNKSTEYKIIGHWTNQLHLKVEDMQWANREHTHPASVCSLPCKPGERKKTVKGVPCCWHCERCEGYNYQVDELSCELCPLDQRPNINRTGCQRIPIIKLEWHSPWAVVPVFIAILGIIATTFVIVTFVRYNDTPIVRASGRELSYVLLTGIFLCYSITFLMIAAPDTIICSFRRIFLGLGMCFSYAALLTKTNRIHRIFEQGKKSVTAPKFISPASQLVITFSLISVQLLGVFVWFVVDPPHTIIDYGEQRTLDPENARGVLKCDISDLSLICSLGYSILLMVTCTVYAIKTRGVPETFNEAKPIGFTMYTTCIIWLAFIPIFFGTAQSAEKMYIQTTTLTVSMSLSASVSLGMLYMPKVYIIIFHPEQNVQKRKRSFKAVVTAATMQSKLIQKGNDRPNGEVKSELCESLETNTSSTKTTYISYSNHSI
In turn, `C=CCOc1cc(C)nc(-c2ccccc2O)n1` registered a z-score of 0.321.

Compound `Cc1nn(C)cc1CNC(=O)Nc1ccc(Cl)cc1` had a z-score of -0.35. In the case of `CN(C)c1ccc(NC(=O)CSCc2nc3c(nnn3Cc3ccc(F)cc3)c(=O)[nH]2)cc1` it was -0.232; in that of `CSc1nc(N2CCOCC2)c2c(c1C#N)CC(C)(C)OC2`, 2.16.

Take `CC(C)(C)NC(=O)Cn1ccc(=N)c2ccccc21`: the z-score came out at 0.117.

As for `CC(Cl)C(=O)c1c(N)n(C)c(=O)n(C)c1=O` (stereo not given), the z-score was determined as 0.258. In the case of `COc1ccc(NC(=O)COC(=O)CNS(=O)(=O)c2ccc(F)c(F)c2F)cc1OC` it was -0.157; in that of `COCCCNC(=O)COc1ccc(Br)cc1Cl`, -0.0923. In the case of `CC1=NC(=O)C(N=Nc2ccccc2C)N1c1ccccc1` (stereo not given) it was 0.0289; in that of `CCOC(=O)C1=C(C)NC(SC)=NC1c1ccc(OC)cc1` (stereo not given), -0.294; in that of `Cc1ccccc1Cn1nc(C)c(NC(=O)C2c3ccccc3Oc3ccccc32)c1C`, 0.413. The compound `COc1cccc(NC(=O)C(OC(=O)/C=C/c2ccc3c(c2)OCO3)c2ccccc2)c1` (stereo not given) had a z-score of -0.0384. To `Cc1ccc(OCc2nnc(SCC(=O)Nc3ccc4c(c3)OCO4)n2C)cc1` belongs 1.73; to `CCOC(=O)c1c(CSc2ccc(C)cc2)oc2ccc(O)cc12`, 0.0857. In the case of `COc1cc(CC(CC(=O)O)CC(C)OCc2ccccc2)cc(OC)c1` (stereo not given) it was -0.0501; in that of `O=C(NCc1ccco1)c1cc(S(=O)(=O)N2CCCc3ccccc32)ccc1Cl`, -0.182; in that of `COCCOC(=O)C1=C(C)NC(=O)NC1C1CC=CCC1` (stereo not given), 0.391.

Take `CC(=O)N1CC(=O)N(OCc2ccccc2)C1c1ccc(Cl)cc1Cl` (stereo not given): the z-score is -0.0814. In turn, `Cc1cccc(OC(=O)c2cn(C)nc2C(F)(F)F)c1C` came in with a z-score of -0.192.

In the case of `Cc1nn(C)c(C)c1S(=O)(=O)N(CC(=O)N1CCc2ccccc21)c1ccc(C(C)C)cc1`, the z-score was -0.0519. `O=C(CSc1nnc(-c2ccco2)c(-c2ccco2)n1)Nc1ccccc1`: the z-score was -0.968. In the case of `CC(NC(=O)C1CCC(CNc2c(N3CCOCC3)c(=O)c2=O)CC1)c1ccccc1` (stereo not given) it was 1.94; in that of `COC(=O)c1[nH]c(C)c(/C(O)=C2\C(=O)C(=O)N(CCCN3CCOCC3)C2c2ccccn2)c1C` (stereo not given), 0.103. To `O=C(N[C@@H](Cc1ccccc1)C(=O)NC1CCCCCC1)c1ccco1` belongs -0.252. To `Cc1ccc(C2(CC(=O)Nc3nccs3)CCOC(C(C)C)C2)cc1` (stereo not given) belongs -1.54.

For `OCCNCc1cc(Br)ccc1OCc1ccccc1Cl`, the z-score was found to be 1.06.

`COc1ccc(C(=O)/C=C/Nc2ccc(C)cn2)cc1OC` gave a z-score of 0.468. In the case of `CN1c2ccccc2C(C)(C)C12CC(c1cccc(S(=O)(=O)N3CCCC3)c1)=NO2` (stereo not given) it was 0.282; in that of `Cc1ccc(-c2noc(CSc3nnc(-c4cccs4)n3C)n2)cc1`, -0.132. In the case of `CCC1(c2ccccc2)NC(=O)N(CC(=O)N2CCN(S(=O)(=O)c3ccccc3)CC2)C1=O` (stereo not given) it was -0.344. In the case of `CCOC(=O)C(NC(=O)Nc1ncccn1)(Oc1ccccc1)C(F)(F)F` (stereo not given) it was 0.153; in that of `Cc1ccc(/C=C2/SC(=S)N(CCC(=O)N3CCN(c4ccccc4)CC3)C2=O)cc1`, -0.356. `COCCCNC(=O)COc1cc(C)c(Cl)c(C)c1`: the z-score was -1.54. In the case of `OCc1cn(-c2ccccc2)nc1-c1cccnc1` it was -0.372; in that of `CCS(=O)(=O)N1CCC(C(=O)NCc2ccc(F)cc2)CC1`, 0.147. In the case of `CSc1nc(Oc2ccc(C)cc2)cc(C(F)(F)F)n1` it was -0.0931.

The compound `Cc1noc(C)c1S(=O)(=O)N1CCN(Cc2ccc3c(c2)OCO3)CC1` registered a z-score of 0.0601.

In the case of `CC(C)C(C(=O)O)N1C(=O)/C(=C/C=C/c2ccco2)SC1=S` (stereo not given), the z-score is -0.321. In the case of `CCOc1ccccc1N(CC(=O)Nc1ccccc1C(=O)O)S(C)(=O)=O` it was 0.403.

`COc1cccc(/C=N/NC(=O)C(=O)NCc2cccnc2)c1O`: the z-score was -0.13. To `CC(=O)Nc1ccc(S(=O)(=O)N(C2=NCC(C)S2)c2ccccc2)cc1` (stereo not given) belongs -1.3. As to `CC(C)(C)NC(=O)C(c1ccccn1)N(C(=O)c1ccc2c(c1)OCCO2)C1CCCC1` (stereo not given), the z-score is -0.011. In the case of `COCCN(C(=O)Cn1nnc2ccccc21)C(C(=O)NC1CCCC1)c1cc(OC)ccc1OC` (stereo not given) it was -0.0886; in that of `Cc1ccc(N2C(=O)c3ccc(C(=O)N4CCN(c5cccc(C)c5C)CC4)cc3C2=O)cc1`, -0.161; in that of `Cc1ccc2nc(-c3cccnc3)c(NC3CCCC3)n2c1`, -0.516. As for `O=C(NCc1ccc(F)cc1)C1CCN(C(=O)NCc2ccccc2)CC1`, the z-score stood at 0.336.

`COc1ccccc1NC(=S)c1ccccc1` registered a z-score of -0.339. In turn, `COCCn1c(SC)nnc1-c1c[nH]c2ccccc12` returned a z-score of 0.391.

Compound `N#Cc1cc(-c2ccccc2)nnc1Sc1ccccc1` came in with a z-score of -0.352. `COc1cc(C(=O)N2CCCc3ccccc32)cc(OC)c1OC`: the z-score was -0.284. In the case of `CCOc1ccc(N2C(=O)c3cccnc3C2Nc2ccc(F)cc2)cc1` (stereo not given) it was -0.265. In the case of `CCC1=[N+]([O-])C(C)(/C(C)=N\O)N(O)C1(C)C` (stereo not given) it was -0.0953; in that of `O=C(Oc1cc(-c2ccccc2)no1)c1ccc(Cl)cc1`, 0.668. To `O=C(Nc1ccc2c(c1)OCO2)C1CCCN(S(=O)(=O)c2cccs2)C1` (stereo not given) belongs -0.132; to `COc1ccc(CCNc2oc(-c3ccccc3OC)nc2C#N)cc1`, -0.451. The compound `CCOC(=O)c1cc(C(=O)Nc2cccc(C)c2)nn1C` displayed a z-score of -0.147.

Compound `CCn1c(CNC(=O)Cc2ccc(OC)cc2)nnc1SCCOc1ccccc1` returned a z-score of -0.339. In the case of `Cc1ccc(SCC(=O)Nc2ncc(C)s2)cc1` it was 0.127; in that of `COc1nc(Oc2ccc(=O)[nH]n2)nc(N2CCOCC2)n1`, 0.372. To `CC(=O)NCCOc1cccc2ccccc12` belongs -0.149; to `Cc1ccc(-n2c(=O)[nH]c3cc(C(=O)NC4CCN(Cc5ccccc5)CC4)ccc3c2=O)cc1`, -0.0496. In the case of `CC(=O)Nc1ccc(S(=O)(=O)c2ccc(N)cc2)cc1N` it was 0.0639. As for `O=C(COc1ccc(C(=O)c2ccccc2)cc1)NCc1ccc(F)cc1`, the z-score is -0.351. To `Nc1nc(Nc2ccccc2)nc(N2CCOCC2)c1[N+](=O)[O-]` belongs -0.211; to `COc1ccc2[nH]c(=O)c(CN(C(=O)COc3ccccc3)C(C)C)cc2c1`, -0.936; to `CCN=C(Nc1ccc(Cl)cc1)c1cccnc1`, -0.0365. In the case of `COc1ccc(Cl)cc1NC(=O)CN1C(=O)CCS(=O)(=O)c2ccccc21` it was -0.285; in that of `COc1cc(C2C(C(C)=O)=C(O)C(=O)N2c2ccc(Br)cn2)ccc1O` (stereo not given), 0.097.

As for `Cc1ccc(C)c2[nH]c(=O)c(C(c3nnnn3Cc3ccccc3)N3CCc4ccccc4C3)cc12` (stereo not given), the z-score was -0.148. To `CC1Cc2ccccc2N1C(=O)CSc1nnc2sc3ccccc3n12` (stereo not given) belongs -0.547.

The values are drawn from PubChem BioAssay AID488969 (Vanderbilt High Throughput Screening Facility, 2010).
